The supplement of paper PMC4604168 (melanoma cell lines)
The list shows a part of the results. Many values rest on one well or one pass, so single values are uncertain.

Legend:
Assay in all cases: cell count relative to DMSO control; melanoma cells; higher = more viable cells
Details in all cases: library dose: low library concentration; 72 h
MZ2-MEL = test system: MZ2-MEL
MeWo = test system: MeWo
RPMI7951 = test system: RPMI7951
RVH-421 = test system: RVH-421
SkMel28 = test system: SkMel28
SkMel2 = test system: SkMel2
SkMel30 = test system: SkMel30
SkMel5 = test system: SkMel5
UACC257 = test system: UACC257
UACC62 = test system: UACC62
WM115 = test system: WM115
WM1716 = test system: WM1716
WM1745 = test system: WM1745
WM3526 = test system: WM3526
WM3619 = test system: WM3619
WM451Lu = test system: WM451Lu
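Further: cell number obtained by counting DAPI-stained nuclei in high-throughput microscope images with image analysis software, screen run in 1,536-well plates.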

Row | Structure (SMILES) | cell count (MZ2-MEL) | cell count (MeWo) | cell count (RPMI7951) | cell count (RVH-421) | cell count (SkMel28) | cell count (SkMel2) | cell count (SkMel30) | cell count (SkMel5) | cell count (UACC257) | cell count (UACC62) | cell count (WM115) | cell count (WM1716) | cell count (WM1745) | cell count (WM3526) | cell count (WM3619) | cell count (WM451Lu)
1 | CS(=O)(=O)c1ccc(C(=O)Nc2ccc(Cl)c(-c3ccccn3)c2)c(Cl)c1 [vismodegib] + CCCCCCCCCCCC1=C(O)C(=O)C=C(O)C1=O [Embelin] (first compound 1 µM, partner dose 1.2 µM) | 99.4% | 100% | 92.6% | 121% | 103% | 113% | 111% | 106% | 86.9% | 90.6% | 87.3% | 103% | 112% | 104% | 104% | 93.5%
2 | CS(=O)(=O)c1ccc(C(=O)Nc2ccc(Cl)c(-c3ccccn3)c2)c(Cl)c1 [vismodegib] + O=S(=O)(c1ccccc1)N(CC(F)(F)F)c1ccc(C(O)(C(F)(F)F)C(F)(F)F)cc1 [T0901317] (first compound 1 µM, partner dose 1.4 µM) | 92.3% | 95.1% | 111% | 110% | 87.5% | 101% | 103% | 93.9% | 72.7% | 87.6% | 90.3% | 92.1% | 83.1% | 88.5% | 88.1% | 106%
3 | CS(=O)(=O)c1ccc(C(=O)Nc2ccc(Cl)c(-c3ccccn3)c2)c(Cl)c1 [vismodegib] + COc1ccc(COc2ccc(Cc3cnc(N)nc3N)cc2OC)cc1 [GW2580] (first compound 1 µM, partner dose 1 µM) | 102% | 101% | 99.7% | 128% | 103% | 113% | 124% | 122% | 118% | 91% | 106% | 118% | 91.9% | 97.9% | 132% | 95%
4 | CCCS(=O)(=O)Nc1ccc(F)c(C(=O)c2c[nH]c3ncc(Cl)cc23)c1F + O=C(Nc1cccc(Cl)c1)Nc1ncc(CCNc2ncnc3ccsc23)s1 [SNS314] (first compound 0.08 µM, partner dose 0.0008 µM) | 89.9% | 103% | 96.8% | 89.1% | 77.5% | 103% | 101% | 132% | 102% | 70.7% | 98% | 111% | 89.6% | 68.3% | 91.7% | 117%
5 | CN(c1ncccc1CNc1nc(Nc2ccc3c(c2)CC(=O)N3)ncc1C(F)(F)F)S(C)(=O)=O + CN(NC(=O)CC(=O)NN(C)C(=S)c1ccccc1)C(=S)c1ccccc1 [STA4783] (first compound 0.08 µM, partner dose 0.006 µM) | 97.8% | 102% | 89.9% | 96.3% | 89.4% | 90.2% | 102% | 64.1% | 57.1% | 86.7% | 79.9% | 67.8% | 55.3% | 102% | 90.9% | 62.5%
6 | NC1(c2ccc(-c3nc4ccn5c(=O)[nH]nc5c4cc3-c3ccccc3)cc2)CCC1 + CC1(C)NC(=O)N(c2ccc([N+](=O)[O-])c(C(F)(F)F)c2)C1=O [nilutamide] (first compound 0.4 µM, partner dose 1 µM) | 102% | 88.6% | 89.1% | 108% | 71.9% | 89% | 98.1% | 104% | 90.8% | 72% | 78.2% | 118% | 95.8% | 77% | 105% | 105%
7 | CS(=O)(=O)c1ccc(C(=O)Nc2ccc(Cl)c(-c3ccccn3)c2)c(Cl)c1 [vismodegib] + COc1cc(Nc2ncc(F)c(Nc3ccc4c(n3)NC(=O)C(C)(C)O4)n2)cc(OC)c1OC [Tamatinib] (first compound 1 µM, partner dose 0.4 µM) | 88.8% | 84.4% | 77.2% | 110% | 92.6% | 89.3% | 93.2% | 88.5% | 69.7% | 78.7% | 80.8% | 87.6% | 73.2% | 88.5% | 89.9% | 85.5%
8 | CS(=O)(=O)c1ccc(C(=O)Nc2ccc(Cl)c(-c3ccccn3)c2)c(Cl)c1 [vismodegib] + O=C(Nc1cccc(Cl)c1)Nc1ncc(CCNc2ncnc3ccsc23)s1 [SNS314] (first compound 1 µM, partner dose 0.0008 µM) | 105% | 95.3% | 124% | 5.11% | 107% | 108% | 92.3% | 101% | 93.3% | 102% | 80% | 118% | 108% | 93.1% | 130% | 66.8%
9 | NC1(c2ccc(-c3nc4ccn5c(=O)[nH]nc5c4cc3-c3ccccc3)cc2)CCC1 + Cn1cncc1[C@@](N)(c1ccc(Cl)cc1)c1ccc2c(c1)c(-c1cccc(Cl)c1)cc(=O)n2C [tipifarnib] (first compound 0.4 µM, partner dose 0.01 µM) | 84.7% | 76.9% | 69.5% | 81.8% | 66.3% | 63.5% | 93.8% | 85.4% | 68% | 58.9% | 63.9% | 69.6% | 82.5% | 65.7% | 79% | 79.4%
10 | CS(=O)(=O)c1ccc(C(=O)Nc2ccc(Cl)c(-c3ccccn3)c2)c(Cl)c1 [vismodegib] + N#Cc1c(O)c2c(-c3ccc(-c4ccccc4O)cc3)csc2[nH]c1=O [A769662] (first compound 1 µM, partner dose 2 µM) | 97.2% | 119% | 96% | 115% | 111% | 99.7% | 94.1% | 107% | 101% | 95.7% | 94.2% | 99.1% | 115% | 93.7% | 102% | 115%
11 | CN(c1ncccc1CNc1nc(Nc2ccc3c(c2)CC(=O)N3)ncc1C(F)(F)F)S(C)(=O)=O + CCCCCCCCCCCC1=C(O)C(=O)C=C(O)C1=O [Embelin] (first compound 0.08 µM, partner dose 1.2 µM) | 93.4% | 99.3% | 73.9% | 93.9% | 88% | 92.9% | 119% | 91.6% | 77.2% | 88.9% | 77.5% | 91.3% | 75.2% | 95.6% | 98.8% | 77.8%
12 | NC1(c2ccc(-c3nc4ccn5c(=O)[nH]nc5c4cc3-c3ccccc3)cc2)CCC1 + COC(=O)c1sccc1S(=O)(=O)Nc1ccc(Nc2ccccc2)cc1OC [GSK0660] (first compound 0.4 µM, partner dose 1 µM) | 100% | 88.1% | 82.1% | 94.4% | 77% | 93.5% | 93.6% | 88.6% | 85.2% | 93.1% | 79.5% | 95.1% | 96.3% | 71.2% | 110% | 107%
13 | C=C(c1ccc(C(=O)O)cc1)c1cc2c(cc1C)C(C)(C)CCC2(C)C [Bexarotene] + Cc1cc([N+](=O)[O-])ccc1NS(=O)(=O)c1cc(Cl)ccc1Cl [FH535] (first compound 2 µM, partner dose 1 µM) | 92.3% | 90.5% | 92.6% | 79.7% | 70.4% | 97.5% | 105% | 80.6% | 107% | 78.6% | 119% | 83.3% | 79.4% | 85.1% | 112% | 95.5%
14 | C=C(c1ccc(C(=O)O)cc1)c1cc2c(cc1C)C(C)(C)CCC2(C)C [Bexarotene] + CN(NC(=O)CC(=O)NN(C)C(=S)c1ccccc1)C(=S)c1ccccc1 [STA4783] (first compound 2 µM, partner dose 0.006 µM) | 104% | 79.3% | 85.2% | 84.5% | 81.7% | 93% | 103% | 105% | 99.5% | 62.1% | 86.3% | 58.9% | 29.9% | 82.5% | 20.1% | 93.9%
15 | NC1(c2ccc(-c3nc4ccn5c(=O)[nH]nc5c4cc3-c3ccccc3)cc2)CCC1 + COc1cc(N2CCC(N3CCN(C)CC3)CC2)ccc1Nc1ncc(Cl)c(Nc2ccccc2S(=O)(=O)C(C)C)n1 [NVP-TAE684] (first compound 0.4 µM, partner dose 0.08 µM) | 93.4% | 94.9% | 120% | 79% | 71.7% | 90.3% | 98.6% | 106% | 95.7% | 68.3% | 92.4% | 102% | 96.3% | 76.1% | 107% | 97.2%
16 | CCCS(=O)(=O)Nc1ccc(F)c(C(=O)c2c[nH]c3ncc(Cl)cc23)c1F + N#Cc1c(O)c2c(-c3ccc(-c4ccccc4O)cc3)csc2[nH]c1=O [A769662] (first compound 0.08 µM, partner dose 2 µM) | 84.5% | 96.8% | 116% | 79.2% | 64.5% | 96.8% | 69.9% | 112% | 95% | 81% | 95.1% | 127% | 82.2% | 81.4% | 107% | 94.3%
17 | CCCS(=O)(=O)Nc1ccc(F)c(C(=O)c2c[nH]c3ncc(Cl)cc23)c1F + CN(C)S(=O)(=O)c1ccc2c(c1)/C(=C/c1cc3c([nH]1)CCCC3)C(=O)N2 [SU6656] (first compound 0.08 µM, partner dose 0.4 µM) | 95.5% | 82.1% | 108% | 93.7% | 61.6% | 98.5% | 89.1% | 78.4% | 70.5% | 68.3% | 79.7% | 104% | 79% | 66.9% | 112% | 93.6%
18 | CN(c1ncccc1CNc1nc(Nc2ccc3c(c2)CC(=O)N3)ncc1C(F)(F)F)S(C)(=O)=O + CCN(CC)CCCCNc1ncc2cc(-c3cc(OC)cc(OC)c3)c(NC(=O)NC(C)(C)C)nc2n1 [PD173074] (first compound 0.08 µM, partner dose 0.1 µM) | 89.7% | 103% | 66.8% | 94.8% | 90.5% | 86% | 96.7% | 72.4% | 69.2% | 74.9% | 82.4% | 96% | 70.8% | 95.8% | 134% | 81.5%
19 | CS(=O)(=O)c1ccc(C(=O)Nc2ccc(Cl)c(-c3ccccn3)c2)c(Cl)c1 [vismodegib] + O=C(CCCCCCC(=O)Nc1ccccc1)NO [vorinostat] (first compound 1 µM, partner dose 0.08 µM) | 107% | 101% | 99.7% | 110% | 75.5% | 95.9% | 85.2% | 86.3% | 79% | 80.3% | 99.9% | 102% | 102% | 82.2% | 97.6% | 69.1%
